PubChem BioAssay AID488969 (Vanderbilt High Throughput Screening Facility, 2010)
The full ranking holds about 110,000 compounds; the median of “z-score” is about -0.1, and the highest 2% start at about 2. The list shows a part of the results. Residues, ends and D or L forms follow the SMILES beside them. *: point of attachment. Bz = O=C(c1ccccc1)*

The molecules below were run against Metabotropic glutamate receptor 8 (Rattus norvegicus) (UniProt P70579) (assay: mGluR8 Gi/Go-coupled signaling modulation – cell-based, rat, thallium flux, HTS, primary screen (AID 488969)). Settings: HEK293 rat mGluR8, GIRK (G protein-gated inwardly rectifying potassium channel) thallium flux, FluoZin2; at 10 µM; stronger effect = higher value; submaximal glutamate (EC20) added with thallium.
Chain of UniProt P70579 (P70579 whole entry, looked up): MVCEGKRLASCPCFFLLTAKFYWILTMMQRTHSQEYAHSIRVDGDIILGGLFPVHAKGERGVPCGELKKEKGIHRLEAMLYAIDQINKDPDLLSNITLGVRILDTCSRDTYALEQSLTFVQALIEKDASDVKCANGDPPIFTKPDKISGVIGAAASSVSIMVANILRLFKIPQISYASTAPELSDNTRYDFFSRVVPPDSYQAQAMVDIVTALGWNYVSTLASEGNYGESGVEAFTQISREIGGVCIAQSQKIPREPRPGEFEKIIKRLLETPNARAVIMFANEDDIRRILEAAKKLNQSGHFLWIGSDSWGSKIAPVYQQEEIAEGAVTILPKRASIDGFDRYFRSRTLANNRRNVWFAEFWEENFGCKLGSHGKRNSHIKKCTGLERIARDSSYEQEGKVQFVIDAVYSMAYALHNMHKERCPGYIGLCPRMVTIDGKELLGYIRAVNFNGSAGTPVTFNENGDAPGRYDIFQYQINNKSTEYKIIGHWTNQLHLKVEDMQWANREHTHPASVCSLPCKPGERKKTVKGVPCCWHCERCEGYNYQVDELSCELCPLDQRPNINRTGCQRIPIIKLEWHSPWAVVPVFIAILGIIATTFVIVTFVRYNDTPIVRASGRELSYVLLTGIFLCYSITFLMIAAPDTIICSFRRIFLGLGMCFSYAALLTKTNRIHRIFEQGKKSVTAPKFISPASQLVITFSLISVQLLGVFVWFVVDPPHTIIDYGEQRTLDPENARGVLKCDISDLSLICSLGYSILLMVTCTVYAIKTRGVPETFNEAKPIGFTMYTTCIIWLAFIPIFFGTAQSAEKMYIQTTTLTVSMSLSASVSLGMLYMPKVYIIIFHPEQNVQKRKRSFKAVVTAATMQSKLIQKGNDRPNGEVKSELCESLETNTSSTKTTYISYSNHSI

Row | SMILES | z-score
1 | CCOc1ccc(NC(=S)Nc2cc(-c3ccccc3)[nH]n2)cc1 | 0.117
2 | COc1ccc(Br)cc1C(=O)NCc1cccnc1 | 0.245
3 | CC1=NN(Cc2ccccc2)C(=O)/C1=C\c1ccc(N(C)C)cc1 | 0.44
4 | Cc1cccc(-c2noc(CCCC(=O)Nc3ccc(C(N)=O)cc3)n2)c1 | 0.243
5 | Cc1cc(C)c(S(=O)(=O)c2ccccc2)c(OC(=O)c2c(Cl)cccc2Cl)n1 | -0.286
6 | NS(=O)(=O)c1cccc(NC(=S)NC(=O)C23CC4CC(CC(C4)C2)C3)c1 | 0.254
7 | COC(=O)c1ccccc1NC(=O)CSc1nnc(C(CO)NC(=O)c2ccccc2)n1C (stereo not drawn) | -0.249
8 | Cc1ccc(-n2c(=O)[nH]cc(C(=O)Nc3ccc4c(c3)OCCO4)c2=O)cc1C | 0.293
9 | Cc1ccc(NC(=S)NN2CCOCC2)c(C)c1 | 0.294
10 | CCCCC(OC(=O)c1cc2occc2n1C)C(=O)NCC1CCCO1 (stereo not drawn) | -0.192
11 | O=C(CN1C(=O)CSC1=O)Nc1ccc(C(=O)O)cc1 | 0.78
12 | CCn1c(N2CCN(CC(=O)Nc3cccc(C)c3C)CC2)nc2ccccc21 | 0.107
13 | OC(C#CCN1CCOCC1)c1cccs1 (stereo not drawn) | -0.742
14 | O=C(NCc1cccnc1)C1CC(=O)N(CCc2ccccc2)C1 (stereo not drawn) | 0.347
15 | O=C(CN1CCOCC1)Nc1nc2ccc(Br)cc2s1 | 0.222
16 | CCOC(=O)c1nc(Nc2ccc(C(=O)O)cc2)c2ccccc2n1 | -0.389
17 | O=C(Nc1ccc(Cl)cc1)Nc1ccccc1C(=O)NCc1ccco1 | -0.534
18 | CN1CCN(S(=O)(=O)c2ccc(NC(=O)c3ccc(Br)o3)cc2)CC1 | -0.512
19 | COc1ccc(-c2nc(CSCC(=O)NC3CCCc4ccccc43)c(C)o2)cc1 (stereo not drawn) | 0.527
20 | Cc1nn(C)c(C)c1/C=C/C(=O)c1ccccc1 | -0.358
21 | O=C1CC(/C=C/c2ccccc2)(C(=O)NC2CCCC2)N1c1ccc(S(=O)(=O)N2CCCC2)cc1 (stereo not drawn) | -0.0708
22 | OC12CCCCC1C(c1ccc3c(c1)OCO3)N(Cc1ccc(F)cc1)CC2 (stereo not drawn) | 1.16
23 | Cc1ccc(C(=O)NCCn2cc(SCC(=O)N3CCOCC3)c3ccccc32)cc1 | -0.305

Row | SMILES | z-score
24 | CCOC(=O)CCCNC(=O)COC(=O)c1cc2ccccc2cc1O | 0.173
25 | COc1ccc(S(=O)(=O)N2CCc3ccccc32)cc1C(=O)OCc1c(C)noc1C | -1.53
26 | Cc1ccccc1NC(=O)C(=O)NCc1ccccn1 | 0.0487
27 | CCOc1ccccc1NC(=O)C(CC(C)C)NC(=O)C1CCC(C)CC1 (stereo not drawn) | 0.171
28 | O=C(CSc1cccc(C(F)(F)F)c1)Nc1cc(S(=O)(=O)N2CCCC2)ccc1Cl | -0.00743
29 | Cc1cc(C)n(CC(O)CN2C(=O)NC(C)(C)C2=O)n1 (stereo not drawn) | 0.578
30 | Cc1cc(C)c(S(=O)(=O)N2CCN(c3ccc([N+](=O)[O-])c(NCC4CCCO4)c3)CC2)c(C)c1 (stereo not drawn) | -0.159
31 | N/C(=N\OC(=O)c1ccco1)c1ccc(Br)cc1 | -0.0693
32 | Cc1ccccc1Cn1cnc2c(NS(C)(=O)=O)c(C)c(C)cc21 | -0.138
33 | Cc1ccc(S(=O)(=O)N2CCN(C)CC2)c(C)c1 | 0.311
34 | Cc1ccc(CN(CC(=O)N/N=C/c2ccccc2[N+](=O)[O-])S(=O)(=O)c2ccc(C)cc2)cc1 | -0.0313
35 | CC(=O)c1cnc(Nc2ccccc2)s1 | 0.548
36 | CC(C)N(CCn1c(=S)[nH]c2ccccc2c1=O)C(C)C | 2.64
37 | CCc1ccc(C2C3=C(CC(C)(C)CC3=O)OC3=C2C(=O)CC(C)(C)C3)cc1 | -0.116
38 | COc1ccc(C(=O)CC(c2ccccc2)S(=O)(=O)c2ccc(C)cc2)cc1 (stereo not drawn) | 1.55
39 | COc1ccc(OC)c(S(=O)(=O)N(C)CC(=O)Nc2cc(Cl)ccc2OC)c1 | -0.511
40 | O=C(O)CCCNC(=O)C(c1ccccc1)c1ccccc1 | -0.286
41 | O=C(CCN1CCN(C(=O)c2ccco2)CC1)Nc1ccc(F)cc1 | -0.0338
42 | COc1ccccc1OCCCCN1CCN(C(c2ccccc2)c2ccccc2)CC1 | 0.0325
43 | CC(C(=O)Nc1ccccc1-c1ccccc1)N1CCCCC1 (stereo not drawn) | 0.165
44 | COc1ccc2c(c1)C(C)=CC(C)(C)N2C(=O)CSc1nnc(-c2ccc(C)cc2)o1 | 0.648
45 | COCc1[nH]nc2c1C(c1ccc(OC)cc1)C(C#N)=C(N)O2 (stereo not drawn) | 0.0374
46 | O=C(Nc1cccs1)Nc1ccc(F)cc1F | 0.103

Row | SMILES | z-score
47 | CCOC(=O)/C(C#N)=C\c1ccc(N2CCN(C)CC2)cc1 | 0.374
48 | C/C(Cn1nc([N+](=O)[O-])cc1C)=N\NC(=O)c1ccc(O)cc1O | -0.109
49 | Cc1ccc(-c2nc3c(cnn3-c3ccccc3)c(=O)o2)cc1 | -0.0297
50 | Cc1cccc(CC(=O)Nc2c3c(nn2-c2cccc(Cl)c2)CS(=O)C3)c1 (stereo not drawn) | -0.26
51 | Cc1ccc(Cl)cc1N1CCN(C(=O)Cc2cn(C)c3ccccc23)CC1 | -0.0945
52 | Cc1ccc(S(=O)(=O)N2CCC(C(=O)Nc3ccccc3N3CCCCC3)CC2)cc1 | -1.05
53 | C/C(=N\OC(=O)c1cccc(C(F)(F)F)c1)c1sc(-c2ccccc2)nc1C | 0.542
54 | CCc1c(C)sc(NC(=O)c2cccs2)c1C(=O)OC(C)C | -0.458
55 | COc1ccc(/C=C2\NC(=O)C(C=NCc3ccccc3)=C2O)cc1 | 0.0339
56 | CCN1CC2([N+](=O)[O-])C=CC(=O)C([N+](=O)[O-])(C1)C2CC(=O)c1ccccc1 (stereo not drawn) | -0.135
57 | COc1ccc(/C=N/NC(=O)c2cccc([N+](=O)[O-])c2)cc1OS(=O)(=O)c1ccccc1 | -0.00309
58 | O=C(NCCN1CCOCC1)C1CCN(S(=O)(=O)N2CCCCC2)CC1 | 0.767
59 | COc1ccc(NC(=O)CN2CCN(CC(=O)Nc3ccccc3Cl)CC2)c(OC)c1 | -0.207
60 | CC(=O)C1C(c2ccccc2)c2c(n[nH]c2C)CC1(C)O (stereo not drawn) | 0.241
61 | COc1ccc(-c2csc3ncnc(Oc4cccc5ccc(C)nc45)c23)cc1 | -0.205
62 | COc1cccc(C(=O)NC(C)C(c2cccs2)N2CCOCC2)c1 (stereo not drawn) | 0.197
63 | COC(=O)c1ccc(CSc2nnc(NC(=O)C3CCCO3)s2)cc1 (stereo not drawn) | 0.158
64 | CC1CCCCC1NC(=O)c1ccc(S(=O)(=O)NCc2ccco2)cc1 (stereo not drawn) | -0.117
65 | Cc1cc(C)c(C(=O)COC(=O)[C@H](C)Nc2ccc(C(F)(F)F)cc2[N+](=O)[O-])c(C)c1 | -0.075
66 | Cn1nc(-c2ccc(Cl)cc2)c2cc(C(=O)N3CCN(c4ccccc4)CC3)sc21 | -0.0847
67 | Fc1ccccc1OCCCCCN1CCCC1 | -0.126
68 | COC(=O)C(NC(=O)C(NC(=O)c1ccccc1)C(C)C)C(C)C (stereo not drawn) (Bz-Val-Val-OMe; configuration not given here) | -0.217
